The values that follow come from paper PMC4641898.

For experiment [1], the target named is T1, AtTERT N-terminal domain fragment RID1(1-271), split-YFP fusion in tobacco BY-2 protoplasts (Arabidopsis thaliana) (UniProt Q9SPU7).
T1 sequence: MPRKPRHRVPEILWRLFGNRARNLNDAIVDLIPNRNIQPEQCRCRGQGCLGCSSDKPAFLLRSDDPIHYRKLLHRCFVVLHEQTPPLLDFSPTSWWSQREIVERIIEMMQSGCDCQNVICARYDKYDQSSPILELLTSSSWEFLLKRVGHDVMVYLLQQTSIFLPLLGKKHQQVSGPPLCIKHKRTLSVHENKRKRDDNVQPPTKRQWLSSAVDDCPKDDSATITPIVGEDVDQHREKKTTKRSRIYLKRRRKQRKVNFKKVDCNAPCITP
The experiment is described as follows: split reporter; BiFC in tobacco BY-2 protoplasts co-transfected with a pair of nYFP and cYFP fusions; overnight in the dark at room temperature; epifluorescence microscopy.

The target in experiment [2] is T2, RRM protein (At5g10350), full length, split-YFP fusion in tobacco BY-2 protoplasts (Arabidopsis thaliana) (UniProt Q9LX90).
T2 sequence: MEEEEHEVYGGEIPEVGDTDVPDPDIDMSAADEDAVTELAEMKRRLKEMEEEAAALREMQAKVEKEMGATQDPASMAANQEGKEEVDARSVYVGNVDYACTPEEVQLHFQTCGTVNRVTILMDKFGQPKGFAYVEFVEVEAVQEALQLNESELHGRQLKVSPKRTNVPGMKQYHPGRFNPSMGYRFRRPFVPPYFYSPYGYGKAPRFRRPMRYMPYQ
The description is as above.

Experiment [3] concerns the target T3, RRM protein (At5g10350), full length, yeast two-hybrid fusion (Arabidopsis thaliana) (UniProt Q9LX90).
T3 sequence: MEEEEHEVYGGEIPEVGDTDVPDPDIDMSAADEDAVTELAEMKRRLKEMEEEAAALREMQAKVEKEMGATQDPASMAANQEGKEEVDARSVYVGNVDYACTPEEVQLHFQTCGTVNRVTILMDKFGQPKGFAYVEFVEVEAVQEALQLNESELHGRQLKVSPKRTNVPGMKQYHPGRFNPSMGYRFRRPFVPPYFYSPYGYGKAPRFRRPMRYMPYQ
The experiment is described as follows: two-hybrid; GAL4-based Matchmaker system, pGADT7-DEST and pGBKT7-DEST fusions co-transformed into S. cerevisiae PJ69-4a (His3 and Ade2 reporters); histidine and stringent adenine selection.

For experiment [4], the target named is T4, RRM-3(170-217), C-terminus of the RRM protein, yeast two-hybrid fusion (Arabidopsis thaliana) (UniProt Q9LX90).
T4 sequence: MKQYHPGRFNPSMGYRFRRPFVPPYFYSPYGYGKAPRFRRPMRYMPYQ
The experiment is described as above.

Experiment [5] deals with T2, RRM protein (At5g10350), full length, split-YFP fusion in tobacco BY-2 protoplasts (Arabidopsis thaliana). The experiment is described as follows: split reporter; BiFC screen: nYFP-RRM against a cYFP-tagged Arabidopsis cDNA library in tobacco BY-2 protoplasts; the identified cYFP clones co-transfected with nYFP-RRM and mRFP-VirD2NLS.
The target of experiment [6] is T5, RRM-4(82-217), RRM domain and C-terminus of the RRM protein, yeast two-hybrid fusion (Arabidopsis thaliana) (UniProt Q9LX90).
T5 sequence: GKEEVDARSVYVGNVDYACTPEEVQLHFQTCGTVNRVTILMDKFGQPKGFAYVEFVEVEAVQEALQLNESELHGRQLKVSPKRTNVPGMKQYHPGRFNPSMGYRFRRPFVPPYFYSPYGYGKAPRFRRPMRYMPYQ
Kind of experiment: two-hybrid; GAL4-based Matchmaker system, pGADT7-DEST and pGBKT7-DEST fusions co-transformed into S. cerevisiae PJ69-4a (His3 and Ade2 reporters); histidine and stringent adenine selection.

Experiment [7] has as its target T6, RRM-5(82-169), RRM domain of the RRM protein, yeast two-hybrid fusion (Arabidopsis thaliana) (UniProt Q9LX90).
T6 sequence: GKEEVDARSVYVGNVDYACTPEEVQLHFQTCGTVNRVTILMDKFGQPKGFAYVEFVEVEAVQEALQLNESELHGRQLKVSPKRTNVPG
The description is as above.

For experiment [8], the target named is T7, RRM-2(1-169), N-terminus and RRM domain of the RRM protein, yeast two-hybrid fusion (Arabidopsis thaliana) (UniProt Q9LX90).
T7 sequence: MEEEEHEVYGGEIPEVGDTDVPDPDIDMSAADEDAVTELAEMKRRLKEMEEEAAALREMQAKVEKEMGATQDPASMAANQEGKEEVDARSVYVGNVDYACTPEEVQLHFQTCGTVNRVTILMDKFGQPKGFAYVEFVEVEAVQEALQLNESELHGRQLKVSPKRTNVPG
The description is as above.

The target of experiment [9] is RRM-1(1-81), N-terminus of the RRM protein, yeast two-hybrid fusion (Arabidopsis thaliana) (UniProt Q9LX90). The description is as above.

No constants are given. Whether binding was seen depends on the method and setting. For some of these results: In cells and extracts the contact can be indirect. Some results given as binding are weak or reduced against the parent protein; the word gives no strength. Where a sequence is shown, tags or fusion partners need not be part of it.

B1: cYFP-tagged full-length Metallothionein 2A (MT2A), cDNA library clone 212M1 (protein, UniProt P25860 1-81)
chain: MSCCGGNCGCGSGCKCGNGCGGCKMYPDLGFSGETTTTETFVLGVAPAMKNQYEASGESNNAENDACKCGSDCKCDPCTCK
Consider B1, for which the binding entry in experiment [1] is “binds”.

B2: RRM protein (At5g10350), full length, split-YFP fusion in tobacco BY-2 protoplasts (protein, UniProt Q9LX90 1-217)
chain: MEEEEHEVYGGEIPEVGDTDVPDPDIDMSAADEDAVTELAEMKRRLKEMEEEAAALREMQAKVEKEMGATQDPASMAANQEGKEEVDARSVYVGNVDYACTPEEVQLHFQTCGTVNRVTILMDKFGQPKGFAYVEFVEVEAVQEALQLNESELHGRQLKVSPKRTNVPGMKQYHPGRFNPSMGYRFRRPFVPPYFYSPYGYGKAPRFRRPMRYMPYQ
Turning to B2, the binding result in experiment [2] is given as “binds”.

B3: RRM protein (At5g10350), full length, yeast two-hybrid fusion (protein, UniProt Q9LX90 1-217)
chain: MEEEEHEVYGGEIPEVGDTDVPDPDIDMSAADEDAVTELAEMKRRLKEMEEEAAALREMQAKVEKEMGATQDPASMAANQEGKEEVDARSVYVGNVDYACTPEEVQLHFQTCGTVNRVTILMDKFGQPKGFAYVEFVEVEAVQEALQLNESELHGRQLKVSPKRTNVPGMKQYHPGRFNPSMGYRFRRPFVPPYFYSPYGYGKAPRFRRPMRYMPYQ
For B3, the binding result in experiment [3] was “binds”.
Consider MKQYHPGRFNPSMGYRFRRPFVPPYFYSPYGYGKAPRFRRPMRYMPYQ (domain or fragment, UniProt Q9LX90 170-217) [RRM-3(170-217), C-terminus of the RRM protein, yeast two-hybrid fusion], for which the binding entry in experiment [3] and in [4] was “binds” in each case.

B4: cYFP-tagged putative nuclear DNA-binding protein G2p fragment G2p(347-401), cDNA library clone (domain or fragment, UniProt Q96327-3 347-401)
chain: LPKKTIEDPEIKGWLALGIKKKKGGGKKKKAQKAGEKGEASTEAEPMDASSNAQE
For B4, in [5], the binding result was “binds”.

B5: RRM-4(82-217), RRM domain and C-terminus of the RRM protein, yeast two-hybrid fusion (domain or fragment, UniProt Q9LX90 82-217)
chain: GKEEVDARSVYVGNVDYACTPEEVQLHFQTCGTVNRVTILMDKFGQPKGFAYVEFVEVEAVQEALQLNESELHGRQLKVSPKRTNVPGMKQYHPGRFNPSMGYRFRRPFVPPYFYSPYGYGKAPRFRRPMRYMPYQ
Turning to B5, the binding entry in experiment [3], in experiment [4] and in experiment [6] was “binds” throughout.

B6: RRM-5(82-169), RRM domain of the RRM protein, yeast two-hybrid fusion (domain or fragment, UniProt Q9LX90 82-169)
chain: GKEEVDARSVYVGNVDYACTPEEVQLHFQTCGTVNRVTILMDKFGQPKGFAYVEFVEVEAVQEALQLNESELHGRQLKVSPKRTNVPG
With B6, the binding result in experiment [3], in [4], in experiment [6] and in experiment [7] was “no binding” each time.

B7: RRM-2(1-169), N-terminus and RRM domain of the RRM protein, yeast two-hybrid fusion (domain or fragment, UniProt Q9LX90 1-169)
chain: MEEEEHEVYGGEIPEVGDTDVPDPDIDMSAADEDAVTELAEMKRRLKEMEEEAAALREMQAKVEKEMGATQDPASMAANQEGKEEVDARSVYVGNVDYACTPEEVQLHFQTCGTVNRVTILMDKFGQPKGFAYVEFVEVEAVQEALQLNESELHGRQLKVSPKRTNVPG
Take B7: the binding result in experiment [3], in experiment [8], in experiment [4], in experiment [6] and in experiment [7] was “no binding” each time.

B8: RRM-1(1-81), N-terminus of the RRM protein, yeast two-hybrid fusion (domain or fragment, UniProt Q9LX90 1-81)
chain: MEEEEHEVYGGEIPEVGDTDVPDPDIDMSAADEDAVTELAEMKRRLKEMEEEAAALREMQAKVEKEMGATQDPASMAANQE
As to B8, the binding result in experiment [3], in experiment [9], in [8], in experiment [4], in experiment [6] and in experiment [7] was “no binding” in each case.

B9: Putative nuclear DNA-binding protein G2p, full length, nYFP fusion in tobacco BY-2 protoplasts (protein, UniProt Q96327-3 1-401)
chain: MSSDDERDEKELSLTSPEVVTKYKSAAEIVNKALQVVLAECKPKAKIVDICEKGDSFIKEQTASMYKNSKKKIERGVAFPTCISVNNTVGHFSPLASDESVLEDGDMVKIDMGCHIDGFIALVGHTHVLQEGPLSGRKADVIAAANTAADVALRLVRPGKKNTDVTEAIQKVAAAYDCKIVEGVLSHQLKQHVIDGNKVVLSVSSPETTVDEVEFEENEVYAIDIVASTGDGKPKLLDEKQTTIYKKDESVNYQLKMKASRFIISEIKQNFPRMPFTARSLEEKRARLGLVECVNHGHLQPYPVLYEKPGSCRFGFLPGDFVAQIKFTVLLMPNGSDRITSHTLQELPKKTIEDPEIKGWLALGIKKKKGGGKKKKAQKAGEKGEASTEAEPMDASSNAQE
As to B9, in [1], the binding entry is listed as “binds”.
